Laboratory results as given in the supplement of paper PMC3334620.
Whole data set: some 33,000 sequences, median “E-score (-0.5 to 0.5)” near -0.012, cut for the highest 2% near 0.27. The list shows a part of the results.

Molecular target: T1, Vhr1 (UniProt P40522)
T1 sequence: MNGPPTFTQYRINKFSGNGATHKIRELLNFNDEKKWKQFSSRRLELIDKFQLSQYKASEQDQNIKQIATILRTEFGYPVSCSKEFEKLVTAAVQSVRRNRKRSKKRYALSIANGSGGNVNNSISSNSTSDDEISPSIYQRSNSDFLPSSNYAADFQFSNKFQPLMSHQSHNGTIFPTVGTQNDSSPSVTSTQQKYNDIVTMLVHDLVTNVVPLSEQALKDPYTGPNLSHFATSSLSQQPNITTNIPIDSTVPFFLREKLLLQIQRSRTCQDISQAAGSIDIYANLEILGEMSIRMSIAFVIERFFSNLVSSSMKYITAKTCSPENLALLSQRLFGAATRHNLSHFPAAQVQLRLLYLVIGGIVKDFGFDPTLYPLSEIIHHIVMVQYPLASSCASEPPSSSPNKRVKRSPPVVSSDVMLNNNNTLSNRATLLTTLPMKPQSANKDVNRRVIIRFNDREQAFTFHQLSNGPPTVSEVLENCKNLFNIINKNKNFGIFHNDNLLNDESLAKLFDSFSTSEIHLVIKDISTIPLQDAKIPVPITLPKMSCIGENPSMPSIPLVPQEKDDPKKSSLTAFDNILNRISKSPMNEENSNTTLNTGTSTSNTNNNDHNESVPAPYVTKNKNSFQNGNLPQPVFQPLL
Test: PBM E-score (8-mer binding enrichment) (E-score (-0.5 to 0.5)); higher = stronger / more preferred TF binding; most listed sequences are background and not binding sites
Conditions: protein concentration: 200 nM; construct: GST-full length
How it was run: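 Yeast transcription factors, full-length or as DNA-binding domains, were expressed with a GST tag using PURExpress in vitro transcription/translation. At about 100-200 nM they were applied to universal all-10-mer Agilent arrays, double-stranded by primer extension on fresh or once-stripped slides. Fluorescent anti-GST detected bound protein, and masliner normalised the scans. E-scores for ungapped eight-base words, pooled with reverse complements, came from the Universal PBM Analysis Suite.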

Row | Sequence | PBM E-score
1 | CGTCCATC | 0.0356
2 | CGAAGATC | -0.173
3 | AGTGGTAA | -0.0324
4 | ATTGAGAA | 0.113
5 | ACCGTCGA | 0.029
6 | GGCGTAAA | -0.148
7 | TGGGCCCA | 0.0911
8 | TAACCAAA | 0.0519
9 | AAAAGGCT | -0.159
10 | ACTAGGTA | 0.113
11 | CCGACATA | 0.026
12 | TGACTAAA | 0.326
13 | CTAAATAC | 0.123
14 | CTTGATGA | 0.128
15 | CAGCCACG | 0.124
16 | ACAAGGCA | -0.0614
17 | ACTACCTG | 0.153
18 | GAGTGGCA | 0.0236
19 | AGTCTCAA | 0.0459
20 | GTACACAC | 0.261
21 | AGAAATCC | -0.269
22 | AGGGATTA | -0.0221

Row | Sequence | PBM E-score
23 | AATCCGTC | -0.00624
24 | CGAAGAAG | -0.123
25 | ACCCAAGC | -0.0655
26 | GAACGGGA | -0.0922
27 | CCTGAGCA | -0.0163
28 | ACTACCAC | 0.175
29 | CCTTGGAA | -0.115
30 | GTGGCGGA | 0.0432
31 | AGGATACA | -0.0569
32 | AAACTCTT | -0.163
33 | GACAAGGA | -0.105
34 | CTAGTGCC | -0.21
35 | AAGACATT | -0.164
36 | GATCGGTA | 0.15
37 | ACGATCTG | -0.125
38 | AGCAGGGC | -0.00534
39 | GCACCGCC | 0.183
40 | GCATGAAA | 0.0196
41 | CGCCCTGA | 0.106
42 | CTGGTATC | 0.0298
43 | GAGCTCCA | -0.103
44 | ATAATTAA | 0.207

Row | Sequence | PBM E-score
45 | AGCATCAC | 0.0243
46 | ACAAGTGT | -0.161
47 | ACATGGAG | 0.119
48 | CTCAGGAC | 0.0961
49 | AACTACAT | 0.0803
50 | ACTTCTAT | -0.0176
51 | CCTCCAGG | -0.112
52 | CACAAACC | -0.135
53 | ATGCACGA | 0.0181
54 | GCCAAAAA | -0.0978
55 | ATAAACAC | 0.0527
56 | CGCCGATC | -0.0351
57 | TGGGACAA | -0.0041
58 | ACGAACAG | -0.0287
59 | ACATTCCT | -0.0361
60 | CATCTCTA | -0.00287
61 | AAGAACCG | 0.0666
62 | GACCGCAA | 0.141
63 | GCGGTTCA | 0.14
64 | GCAACCTA | 0.0732
65 | CCCCCAAG | -0.103
66 | AGCCGAAC | -0.0851

Row | Sequence | PBM E-score
67 | CCAGCACG | -0.127
68 | GGCCTTGA | -0.117
69 | TCTTTCAA | -0.187
70 | CTTTGACC | -0.0122
71 | ACGTACCA | -0.0801
72 | AATCTCTC | -0.0867
73 | GCATCGGA | -0.0197
74 | CGGATTCA | 0.0469
75 | GCTGAGGA | -0.274
76 | ACGGTTAG | -0.104
77 | TAACAGCA | 0.0822
78 | AGGAATGC | 0.00488
79 | AATCCGAG | 0.117
80 | AACAGCAC | 0.108
81 | ATAGCAGC | -0.207
82 | AAATAAGT | -0.188
83 | ACCCTAGC | -0.0939
84 | ATACATAC | 0.293
85 | GTAGTGGA | -0.0367
86 | ACCACTCG | 0.149
87 | CCCTCCTC | 0.028
88 | AGTCTTTG | -0.141

Row | Sequence | PBM E-score
89 | CCCAGTGC | 0.117
90 | GATCGAAC | -0.132
91 | CAAGTTTA | -0.0781
92 | GCGGTTAC | 0.057
93 | GTTTAGTA | -0.165
94 | AAGCTCTG | -0.235
95 | CTAAGCAA | -0.233
96 | ACGAATTG | -0.174
97 | GTTTTGCA | -0.19
98 | AGTTTCTG | -0.0524
99 | GAGCTTCA | -0.109
100 | CGAACGAA | 0.0543
101 | AGCTCTCA | -0.16
102 | ACAAACAA | -0.0374
103 | CTGCATCC | -0.157
104 | ATATATTC | 0.162
105 | CAGTCATC | 0.419
106 | CCACCTGC | -0.0231
107 | CCTTTCTC | -0.11
108 | CGTACCGA | 0.0431
109 | TAGGTCAA | 0.0181
